The full ranking holds about 16,000 sequences; the median of “Z-score” is about -0.37, and the highest 2% start at about 3.1. The list shows a part of the results.
Test system: RBM10 RRM1-ZnF-RRM2 (GST-tagged construct)
Test: RNAcompete 7-mer binding Z-score; higher = stronger binding preference
Protocol: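 RNAcompete: 20 pmol GST-tagged RBM10 RNA-binding constructs were incubated with a designed RNA pool of about 241,000 sequences up to 41 nt (1.5 nmol) on glutathione beads for 30 min at 4 °C and washed. Bound RNAs were identified by microarray hybridisation. Each RNA 7-mer is scored by a one-sided Z-score of its enrichment, computed over probes that contain the 7-mer within longer pool sequences.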

Sequence | RNAcompete 7-mer binding Z-score
CCUUAUU | -0.879
UGCCGUG | -0.00512
UUCCCCC | -0.511
ACGCCGG | -0.395
CUGAUCG | -0.734
AGACAGG | 1.72
UAGUGAC | 0.21
UGCUGCU | -0.566
GAUAUGC | -0.078
AAUUCCC | -0.85
UUAAUUA | -0.61
UAUCACA | -0.373
UCGUUGA | -0.519
CGCGCGC | -0.562
CGAACGA | -0.0561
CUCGGGA | 0.228
GUGACGA | 0.68
GUAAAGA | 0.545
UAGUGGU | 1.27
UACGCCA | -0.602
GCGACCA | -0.0379
GUUCCAU | -0.712
CACUACA | -0.504

Sequence | RNAcompete 7-mer binding Z-score
AUGGAGA | 2.59
UCGAGAC | -0.417
UCGAUAG | 0.0058
GGGGAAA | 3.02
ACUCUUA | -0.981
GACCGUA | -0.635
UCCAGAG | -0.213
AUGGAAA | 2.62
UCAGUCU | -0.646
AACGCCC | -0.777
CCUUAGC | -0.817
GCGGUUG | 1.02
GUCGGUU | 0.199
CAUUCAC | -0.723
CUUGAUG | -0.664
GUAAGAG | 1.18
UGAGGUA | 1.87
UUGAGUC | -0.435
UUUGUCU | -0.653
CACCCUC | -0.763
UGCGGCU | -0.169
UGUAGUA | 0.155
ACAUAUA | -0.744

Sequence | RNAcompete 7-mer binding Z-score
AUUACUC | -0.65
CGCUGUG | -0.322
CAGUGGA | 1.75
UCGACGA | -0.275
ACUUGAC | -0.836
GAUACGG | 1.97
CUCCCAG | -0.683
GGGCCGA | 0.84
CGUUUAU | -0.712
GUAAGUC | -0.0743
AACUUAA | -0.628
UACCCGA | -0.65
GUCUGAC | -0.562
UCUCGAC | -0.799
CGGAAAC | 0.111
GAGUGCU | -0.125
GAAACCU | -0.661
AAGGGAU | 3.44
CAACUUC | -0.879
GCAGAAU | 0.468
AAAUCCA | -0.46
AUCUGAC | -0.734
GUCCACA | -0.406

Sequence | RNAcompete 7-mer binding Z-score
CAGGUUC | -0.0707
AUUAUUU | -0.639
CUUAAAG | -0.723
UUUGUAC | -0.686
UCGCUGG | 0.075
CGGUGUA | 0.873
CGCACCG | -0.417
ACAGCCA | -0.555
ACUGGAU | 0.527
AUACCAG | 0.075
CUCCCCG | -0.737
CUCGUCG | -0.5
AAGCGGC | 0.217
UGUGGUA | 0.833
GCAGUAC | 0.0604
UCGAUGA | -0.278
CACCUCU | -0.854
GUGUAUA | 0.614
AAGGUUU | 2.37
AUACCAC | -0.46
UGUGUAC | -0.315
CUCUCUU | -0.857
AACGAUU | -0.355

Sequence | RNAcompete 7-mer binding Z-score
AGGACUA | -0.078
UGGCGCC | -0.264
CACCAUA | -0.632
GCUAGAG | 0.37
ACCGGGU | 1.28
UAAAAAG | 0.137
UUAGGCU | 0.0532
UGUAUAG | 0.297
CAACUCG | -0.766
GUCCGUC | -0.362
AGCGCUC | -0.522
UCUCAGC | -0.744
AUCCCAG | -0.435
AUACUUG | -0.61
GAAUCAC | -0.129
UUAAAUG | -0.486
GUAGCUA | -0.216
CUGACUG | -0.581
CACGAAG | 0.0495
GCCGACC | -0.679
UACUUUC | -0.894
CAUGUGG | 0.84
UCGACGU | -0.5

Sequence | RNAcompete 7-mer binding Z-score
UGGGUGG | 4
AAGGUCU | -0.103
CGAUGCA | -0.0998
AUGCCCU | -0.839
UAACGUA | -0.107
CUCACUU | -0.97
AGCACGC | -0.358
UUUGGAC | -0.246
UUAUUAC | -0.697
UUGACGU | -0.479
GCCCGAC | -0.843
CAGCUGC | -0.548
CCAUCCC | -0.759
AGCCGCG | -0.388
CCAACCU | -0.85
UUUGGGU | 2.13
GUCAAGG | 1.38
GGUCCAG | 0.199
CAGACCG | -0.497
UUUCACG | -0.715
GUACUCU | -0.672
GUUUGAC | -0.373
AACUUUU | -0.752

Sequence | RNAcompete 7-mer binding Z-score
ACAGCUG | -0.0707
GUCUCCA | -0.65
UGCAAGC | -0.573
CUUUGCG | -0.894
CAUGAGG | 1.35
UAACUCG | -0.533
CUGCUGA | -0.639
CAACGGA | 0.913
ACCGACU | -0.697
ACACACG | -0.0962
UGCCCCU | -0.471
GACAUGA | 0.301
UACCACC | -0.526
CUCUUAA | -0.759
CCCGUAU | -0.752
CGAGCCU | -0.723
GACCCGC | -0.89
CCGUAUU | -0.737
GAUUAUA | -0.0998
CCGUGUU | -0.606
CAAGUGC | -0.289
CUCGGAC | -0.453
GGCUUGU | -0.318

Sequence | RNAcompete 7-mer binding Z-score
GACAAAG | 1.01
GCUCCUG | -0.704
AAGUGCA | 0.235
UAACCCG | -0.668
UGGAACU | 0.279
CACUCUU | -0.876
UCCAGGG | 0.851
GUGAGCA | 0.676
UAAGGGA | 3.09
CUAGCAU | -0.624
CAUUAGA | -0.526
UUACACU | -0.526
UGAAGAG | 0.869
UGGGAAA | 2.49
GCCACGG | 0.479
CGAGCUG | -0.184
ACACGUG | -0.107
CUUAAUA | -0.763
UGCCUGG | -0.457
ACGCUCC | -0.697
UCGUUUC | -0.675
UUUGAGC | -0.566

— the supplement of paper PMC5499739
